About 14,000 (4.5%) of roughly 310,000 compounds showed an effect of 50% or more. The effect is printed as a negative number. The list shows a part of the results.
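Further: peak tail current of the secondary pulse compared with the same well before compound.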

human ether-à-go-go-related gene (hERG) potassium channel, sequence (Q12809 whole entry, looked up): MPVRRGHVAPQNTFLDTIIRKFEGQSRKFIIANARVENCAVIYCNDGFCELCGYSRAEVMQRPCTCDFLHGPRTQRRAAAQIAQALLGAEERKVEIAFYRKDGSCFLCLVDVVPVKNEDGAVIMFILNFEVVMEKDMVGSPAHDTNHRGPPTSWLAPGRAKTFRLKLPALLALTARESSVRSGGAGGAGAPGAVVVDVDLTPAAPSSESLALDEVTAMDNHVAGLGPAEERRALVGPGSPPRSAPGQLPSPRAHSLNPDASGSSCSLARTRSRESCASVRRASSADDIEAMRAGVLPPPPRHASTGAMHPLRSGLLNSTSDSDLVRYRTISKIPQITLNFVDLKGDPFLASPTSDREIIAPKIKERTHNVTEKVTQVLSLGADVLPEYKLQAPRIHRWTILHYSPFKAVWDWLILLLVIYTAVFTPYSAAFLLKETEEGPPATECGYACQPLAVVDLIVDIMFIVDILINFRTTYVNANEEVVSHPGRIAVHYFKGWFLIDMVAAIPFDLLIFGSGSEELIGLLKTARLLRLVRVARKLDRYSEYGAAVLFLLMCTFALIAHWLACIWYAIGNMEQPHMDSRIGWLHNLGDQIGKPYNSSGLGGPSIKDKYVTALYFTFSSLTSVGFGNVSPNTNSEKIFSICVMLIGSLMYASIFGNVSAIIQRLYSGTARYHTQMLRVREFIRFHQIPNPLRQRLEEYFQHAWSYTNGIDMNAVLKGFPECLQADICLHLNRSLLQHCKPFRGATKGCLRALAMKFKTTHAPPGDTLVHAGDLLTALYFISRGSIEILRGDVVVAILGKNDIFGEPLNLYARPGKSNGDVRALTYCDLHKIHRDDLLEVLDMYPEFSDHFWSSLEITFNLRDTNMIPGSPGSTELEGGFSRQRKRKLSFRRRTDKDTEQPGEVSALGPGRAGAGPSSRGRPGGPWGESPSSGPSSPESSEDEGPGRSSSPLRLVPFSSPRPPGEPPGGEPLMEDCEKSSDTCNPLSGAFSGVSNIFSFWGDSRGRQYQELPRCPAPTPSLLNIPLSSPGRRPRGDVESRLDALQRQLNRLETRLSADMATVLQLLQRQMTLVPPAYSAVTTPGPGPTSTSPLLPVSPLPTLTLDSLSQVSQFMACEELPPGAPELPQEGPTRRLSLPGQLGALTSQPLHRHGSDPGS

This test concerns the target human ether-à-go-go-related gene (hERG) potassium channel (human, UniProt Q12809). As to the kind of experiment: primary screen, population patch clamp on CHO cells stably expressing hERG.
Regarding `Cc1ccc(NC(=O)Cc2ccc(Cl)c(Cl)c2)cc1S(=O)(=O)N(C)C`, the “hERG current change (%, negative = inhibition) at 10uM” value came out at 7.88%.

For `Cc1cc2c3c(c1)C1(SCC(=O)N1c1ccc(F)cc1)C(=O)N3C(C)(C)CC2C` (centres unmarked), the “hERG current change (%, negative = inhibition) at 10uM” value was -14.7%.

Consider `COc1ccccc1CC(NC(C)=O)C(=O)NC1CCN(S(=O)(=O)c2ccc(NC(C)=O)cc2)CC1` (centres unmarked), for which the “hERG current change (%, negative = inhibition) at 10uM” value was -4.33%.

`COc1ccccc1CC(=O)Nc1cc(S(=O)(=O)N2CCOCC2)ccc1N1CCOCC1`: the “hERG current change (%, negative = inhibition) at 10uM” value is -2.33%.

For `CC(C)(C)c1cc(C(=O)C[n+]2ccc(C(=O)NCCCO)cc2)cc(C(C)(C)C)c1O.[Br-]`, the “hERG current change (%, negative = inhibition) at 10uM” value is 3.46%.

With `Cc1ccc(OCCSCc2nnc(NC(=O)Nc3cccc(Cl)c3)s2)cc1`, the “hERG current change (%, negative = inhibition) at 10uM” value is -2.22%.

Turning to `CCCOc1ccc(N2C(=O)C3C4C=CC(CC4)C3C2=O)cc1` (centres unmarked), the “hERG current change (%, negative = inhibition) at 10uM” value stood at 10.1%.

Consider `Cc1ccc(C)c(N2CCN(C(=O)c3ccc(NS(=O)(=O)c4c(C)noc4C)cc3)CC2)c1`, for which the “hERG current change (%, negative = inhibition) at 10uM” value was 8.88%.

For `Cc1ccc2[nH]c(=O)c(CN(CC3CCCO3)C(=O)c3ccncc3)cc2c1` (centres unmarked), the “hERG current change (%, negative = inhibition) at 10uM” value is reported as 8.32%.

Regarding `O=C(N/N=C/c1ccc(Cl)cc1)Nc1ccccc1`, the “hERG current change (%, negative = inhibition) at 10uM” value is on record as -14.2%.

`C[C@H](NC(=O)[C@@H]1Cc2ccccc2CN1C(=O)OC(C)(C)C)C(=O)NC1CCCCC1`: the “hERG current change (%, negative = inhibition) at 10uM” value worked out at 15.8%.

Regarding `Cc1cccnc1N(C(=O)Nc1ccccc1)C1=NCC(C)(C)S1`, the “hERG current change (%, negative = inhibition) at 10uM” value is listed as -4.5%.

Consider `Nn1c(SCC(=O)NNC(=O)c2ccccc2)nnc1-c1ccccc1F`, for which the “hERG current change (%, negative = inhibition) at 10uM” value stood at 3.47%.

With `N#Cc1c(N)c(C(=O)c2ccccc2)n2ccccc12`, the “hERG current change (%, negative = inhibition) at 10uM” value was 10.7%.

For `COc1ccc(/C(O)=C2/C(=O)C(=O)N(CCN(C)C)C2c2ccccn2)cc1OC` (centres unmarked), the “hERG current change (%, negative = inhibition) at 10uM” value was 14.5%.

`Cc1ccc(N(C(=O)Cc2c[nH]c3ccccc23)C(C(=O)NC2CCCCC2)c2ccco2)cc1` (centres unmarked): the “hERG current change (%, negative = inhibition) at 10uM” value is listed as -6.34%.

`O=C1CC(c2ccc(F)cc2)c2cc3c(cc2N1)CCC3` (centres unmarked): the “hERG current change (%, negative = inhibition) at 10uM” value is -5.48%.

For `Cc1ccc(S(=O)(=O)NCC(=O)OCC(=O)Nc2cccc(S(=O)(=O)NC3=NCCCCC3)c2)cc1C`, the “hERG current change (%, negative = inhibition) at 10uM” value is recorded as -1.1%.

On to `CC(C)OCCCNC(=O)c1cccs1`, for which the “hERG current change (%, negative = inhibition) at 10uM” value was -9.39%.

As for `Cc1ccn(CC(=O)N2N=C(C(F)F)CC2(O)C(F)F)n1` (centres unmarked), the “hERG current change (%, negative = inhibition) at 10uM” value amounted to 31%.

As to `Cn1c(SCC(=O)NC2CCCCC2)nnc1-c1ccccc1O`, the “hERG current change (%, negative = inhibition) at 10uM” value is recorded as -41.3%.

In the case of `COc1ccc(C(CNC(=O)c2ccc(NS(=O)(=O)c3ccc(F)c(C)c3)cc2)N2CCOCC2)cc1` (centres unmarked), the “hERG current change (%, negative = inhibition) at 10uM” value is listed as -20.8%.

As to `Cc1cc(/C(=N/O)C(C)(C)NO)ccc1Cl`, the “hERG current change (%, negative = inhibition) at 10uM” value was determined as 5.73%.

In the case of `CC(C)(C)c1ccc(NC(=O)C2=CN3CCS(=O)(=O)N=C3C=C2)cc1`, the “hERG current change (%, negative = inhibition) at 10uM” value is listed as -20.6%.

In the case of `CCOc1ccc(OCCC(=O)OCC(=O)Nc2cc(OCC)c(N3CCOCC3)cc2OCC)cc1`, the “hERG current change (%, negative = inhibition) at 10uM” value is recorded as -15%.

Take `COc1ccc(-c2c(C)nn(Cc3ccccc3)c2N)cc1`: the “hERG current change (%, negative = inhibition) at 10uM” value is -8.57%.

`O=C(Nc1ccc2nsnc2c1)c1cccs1`: the “hERG current change (%, negative = inhibition) at 10uM” value was 9.43%.

As for `COc1ccc(/C=N/NC(=O)c2ccoc2C)cc1CN1CCN(c2ccc(F)cc2)CC1`, the “hERG current change (%, negative = inhibition) at 10uM” value was -76.8%.

As for `Cc1cc(NC(=O)C2CCN(S(=O)(=O)c3c(C)noc3C)CC2)ccc1Br`, the “hERG current change (%, negative = inhibition) at 10uM” value turned out to be 19.2%.

Regarding `CC/C(=N/Nc1ccccc1)c1cnnc(SC)n1`, the “hERG current change (%, negative = inhibition) at 10uM” value was -0.704%.

As to `C/C(=N/NC(=O)c1cccs1)c1ccco1`, the “hERG current change (%, negative = inhibition) at 10uM” value was 10.5%.

With `CCOC(=O)c1c(NC(=O)CCCC(=O)O)sc2c1CCC2`, the “hERG current change (%, negative = inhibition) at 10uM” value stood at 9.54%.

On to `O=C1CC(C(=O)NCc2ccccc2)C2(CCCC2)O1` (centres unmarked), for which the “hERG current change (%, negative = inhibition) at 10uM” value is on record as 1%.

Consider `O=C(CSc1nnc(CNC(=O)c2ccc(F)cc2)o1)NCc1ccc(F)cc1`, for which the “hERG current change (%, negative = inhibition) at 10uM” value is -9.46%.

Consider `CCc1nc2ccc(C(=O)NCc3ccccc3)cc2nc1CC`, for which the “hERG current change (%, negative = inhibition) at 10uM” value is 36.5%.

`CCC(=Nc1ccc2c(c1)CCC2)c1c(O)n(C)c(=O)n(C)c1=O`: the “hERG current change (%, negative = inhibition) at 10uM” value is given as 18.2%.

For the molecule `O=C(CC(O)(c1ccccc1)C(F)(F)C(F)F)c1cccs1` (centres unmarked), the “hERG current change (%, negative = inhibition) at 10uM” value stood at 0.446%.

As to `CCCCN(C(=O)c1ccc2ccccc2c1)c1c(N)n(CCCC)c(=O)[nH]c1=O`, the “hERG current change (%, negative = inhibition) at 10uM” value is 8.11%.

Consider `COC(=O)Cn1cc(C(=O)C(C)(C)C)c2ccccc21`, for which the “hERG current change (%, negative = inhibition) at 10uM” value came out at 0.25%.

With `CCc1ccc(NC(=O)c2cnc(SC)nc2C)cc1`, the “hERG current change (%, negative = inhibition) at 10uM” value is recorded as 1.07%.

As to `CC1=CC(C)(C)N2C(=O)C3(C(C#N)=C(N)Oc4cc(O)ccc43)c3c(C)c(C)cc1c32` (centres unmarked), the “hERG current change (%, negative = inhibition) at 10uM” value was -15.8%.

`Cc1c(/C=N/N=C2\CCC3C4CCc5cc(O)ccc5C4CCC23C)cnn1C` (centres unmarked): the “hERG current change (%, negative = inhibition) at 10uM” value is reported as 3.75%.

Regarding `CCCS(=O)(=O)c1ccc(COC(=O)c2cccc(NC(=O)C(C)C)c2)cc1`, the “hERG current change (%, negative = inhibition) at 10uM” value is recorded as -36%.

`CCOC(=O)N1CCN(CCC(=O)c2ccc(OC)cc2)CC1.Cl`: the “hERG current change (%, negative = inhibition) at 10uM” value is on record as -18.2%.
